Source: the supplement of paper PMC11876631
± gives the standard deviation of the averaged measurements. Laboratory Escherichia coli strains with one amino-acid change in an essential protein, pooled on minimal glucose agar with carbenicillin or gentamicin at twice the control MIC (plus kanamycin and chloramphenicol for the plasmids), 48 h. Fold change of barcode share against drug-free plates; higher = less susceptible. Active = above 20 in both replicates (the paper's putatively resistant). '<' = one read or none on drug, '>' = one read or none on a drug-free plate. Shares are relative, so most strains fall below 1 when a few take over. Listed are strains with at least 15 reads on both drug-free plates, and hits; most hits rest on fewer reference reads. Replicate rank correlation about 0.5. Edits are read from barcodes.

B1: gmk L24W (protein)
chain: MAQGTLYIVSAPSGAGKSSLIQAWLKTQPLYDTQVSVSHTTRQPRPGEVHGEHYFFVNHDEFKEMISRDAFLEHAEVFGNYYGTSREAIEQVLATGVDVFLDIDWQGAQQIRQKMPHARSIFILPPSKIELDRRLRGRGQDSEEVIAKRMAQAVAEMSHYAEYDYLIVNDDFDTALTDLKTIIRAERLRMSRQKQRHDALISKLLAD
B2: gmk L179Q (protein)
chain: MAQGTLYIVSAPSGAGKSSLIQALLKTQPLYDTQVSVSHTTRQPRPGEVHGEHYFFVNHDEFKEMISRDAFLEHAEVFGNYYGTSREAIEQVLATGVDVFLDIDWQGAQQIRQKMPHARSIFILPPSKIELDRRLRGRGQDSEEVIAKRMAQAVAEMSHYAEYDYLIVNDDFDTALTDQKTIIRAERLRMSRQKQRHDALISKLLAD
B3: glmS I181Q (protein)
chain: MCGIVGAIAQRDVAEILLEGLRRLEYRGYDSAGLAVVDAEGHMTRLRRLGKVQMLAQAAEEHPLHGGTGIAHTRWATHGEPSEVNAHPHVSEHIVVVHNGIIENHEPLREELKARGYTFVSETDTEVIAHLVNWELKQGGTLREAVLRAIPQLRGAYGTVIMDSRHPDTLLAARSGSPLVQGLGMGENFIASDQLALLPVTRRFIFLEEGDIAEITRRSVNIFDKTGAEVKRQDIESNLQYDAGDKGIYRHYMQKEIYEQPNAIKNTLTGRISHGQVDLSELGPNADELLSKVEHIQILACGTSYNSGMVSRYWFESLAGIPCDVEIASEFRYRKSAVRRNSLMITLSQSGETADTLAGLRLSKELGYLGSLAICNVPGSSLVRESDLALMTNAGTEIGVASTKAFTTQLTVLLMLVAKLSRLKGLDASIEHDIVHGLQALPSRIEQMLSQDKRIEALAEDFSDKHHALFLGRGDQYPIALEGALKLKEISYIHAEAYAAGELKHGPLALIDADMPVIVVAPNNELLEKLKSNIEEVRARGGQLYVFADQDAGFVSSDNMHIIEMPHVEEVIAPIFYTVPLQLLAYHVALIKGTDVDQPRNLAKSVTVE
B4: argC I302W (protein)
chain: MLNTLIVGASGYAGAELVTYVNRHPHMNITALTVSAQSNDAGKLISDLHPQLKGIVDLPLQPMSDISEFSPGVDVVFLATAHEVSHDLAPQFLEAGCVVFDLSGAFRVNDATFYEKYYGFTHQYPELLEQAAYGLAEWCGNKLKEANLIAVPGCYPTAAQLALKPLIDADLLDLNQWPVINATSGVSGAGRKAAISNSFCEVSLQPYGVFTHRHQPEIATHLGADVIFTPHLGNFPRGILETITCRLKSGVTQAQVAQVLQQAYAHKPLVRLYDKGVPALKNVVGLPFCDIGFAVQGEHLIWVATEDNLLKGAAAQAVQCANIRFGYAETQSLI
B5: argC I302D (protein)
chain: MLNTLIVGASGYAGAELVTYVNRHPHMNITALTVSAQSNDAGKLISDLHPQLKGIVDLPLQPMSDISEFSPGVDVVFLATAHEVSHDLAPQFLEAGCVVFDLSGAFRVNDATFYEKYYGFTHQYPELLEQAAYGLAEWCGNKLKEANLIAVPGCYPTAAQLALKPLIDADLLDLNQWPVINATSGVSGAGRKAAISNSFCEVSLQPYGVFTHRHQPEIATHLGADVIFTPHLGNFPRGILETITCRLKSGVTQAQVAQVLQQAYAHKPLVRLYDKGVPALKNVVGLPFCDIGFAVQGEHLIDVATEDNLLKGAAAQAVQCANIRFGYAETQSLI
B6: gltX V186A (protein)
chain: MKIKTRFAPSPTGYLHVGGARTALYSWLFARNHGGEFVLRIEDTDLERSTPEAIEAIMDGMNWLSLEWDEGPYYQTKRFDRYNAVIDQMLEEGTAYKCYCSKERLEALREEQMAKGEKPRYDGRCRHSHEHHADDEPCVVRFANPQEGSVVFDDQIRGPIEFSNQELDDLIIRRTDGSPTYNFCVAVDDWDMEITHVIRGEDHINNTPRQINILKALKAPVPVYAHVSMINGDDGKKLSKRHGAVSVMQYRDDGYLPEALLNYLVRLGWSHGDQEIFTREEMIKYFTLNAVSKSASAFNTDKLLWLNHHYINALPPEYVATHLQWHIEQENIDTRNGPQLADLVKLLGERCKTLKEMAQSCRYFYEDFAEFDADAAKKHLRPVARQPLEVVRDKLAAITDWTAENVHHAIQATADELEVGMGKVGMPLRVAVTGAGQSPALDVTVHAIGKTRSIERINKALDFIAERENQQ
B7: gltX V185A (protein)
chain: MKIKTRFAPSPTGYLHVGGARTALYSWLFARNHGGEFVLRIEDTDLERSTPEAIEAIMDGMNWLSLEWDEGPYYQTKRFDRYNAVIDQMLEEGTAYKCYCSKERLEALREEQMAKGEKPRYDGRCRHSHEHHADDEPCVVRFANPQEGSVVFDDQIRGPIEFSNQELDDLIIRRTDGSPTYNFCAVVDDWDMEITHVIRGEDHINNTPRQINILKALKAPVPVYAHVSMINGDDGKKLSKRHGAVSVMQYRDDGYLPEALLNYLVRLGWSHGDQEIFTREEMIKYFTLNAVSKSASAFNTDKLLWLNHHYINALPPEYVATHLQWHIEQENIDTRNGPQLADLVKLLGERCKTLKEMAQSCRYFYEDFAEFDADAAKKHLRPVARQPLEVVRDKLAAITDWTAENVHHAIQATADELEVGMGKVGMPLRVAVTGAGQSPALDVTVHAIGKTRSIERINKALDFIAERENQQ
B8: gltX F183W (protein)
chain: MKIKTRFAPSPTGYLHVGGARTALYSWLFARNHGGEFVLRIEDTDLERSTPEAIEAIMDGMNWLSLEWDEGPYYQTKRFDRYNAVIDQMLEEGTAYKCYCSKERLEALREEQMAKGEKPRYDGRCRHSHEHHADDEPCVVRFANPQEGSVVFDDQIRGPIEFSNQELDDLIIRRTDGSPTYNWCVVVDDWDMEITHVIRGEDHINNTPRQINILKALKAPVPVYAHVSMINGDDGKKLSKRHGAVSVMQYRDDGYLPEALLNYLVRLGWSHGDQEIFTREEMIKYFTLNAVSKSASAFNTDKLLWLNHHYINALPPEYVATHLQWHIEQENIDTRNGPQLADLVKLLGERCKTLKEMAQSCRYFYEDFAEFDADAAKKHLRPVARQPLEVVRDKLAAITDWTAENVHHAIQATADELEVGMGKVGMPLRVAVTGAGQSPALDVTVHAIGKTRSIERINKALDFIAERENQQ
B9: gltX V186D (protein)
chain: MKIKTRFAPSPTGYLHVGGARTALYSWLFARNHGGEFVLRIEDTDLERSTPEAIEAIMDGMNWLSLEWDEGPYYQTKRFDRYNAVIDQMLEEGTAYKCYCSKERLEALREEQMAKGEKPRYDGRCRHSHEHHADDEPCVVRFANPQEGSVVFDDQIRGPIEFSNQELDDLIIRRTDGSPTYNFCVDVDDWDMEITHVIRGEDHINNTPRQINILKALKAPVPVYAHVSMINGDDGKKLSKRHGAVSVMQYRDDGYLPEALLNYLVRLGWSHGDQEIFTREEMIKYFTLNAVSKSASAFNTDKLLWLNHHYINALPPEYVATHLQWHIEQENIDTRNGPQLADLVKLLGERCKTLKEMAQSCRYFYEDFAEFDADAAKKHLRPVARQPLEVVRDKLAAITDWTAENVHHAIQATADELEVGMGKVGMPLRVAVTGAGQSPALDVTVHAIGKTRSIERINKALDFIAERENQQ
B10: gltX V186Q (protein)
chain: MKIKTRFAPSPTGYLHVGGARTALYSWLFARNHGGEFVLRIEDTDLERSTPEAIEAIMDGMNWLSLEWDEGPYYQTKRFDRYNAVIDQMLEEGTAYKCYCSKERLEALREEQMAKGEKPRYDGRCRHSHEHHADDEPCVVRFANPQEGSVVFDDQIRGPIEFSNQELDDLIIRRTDGSPTYNFCVQVDDWDMEITHVIRGEDHINNTPRQINILKALKAPVPVYAHVSMINGDDGKKLSKRHGAVSVMQYRDDGYLPEALLNYLVRLGWSHGDQEIFTREEMIKYFTLNAVSKSASAFNTDKLLWLNHHYINALPPEYVATHLQWHIEQENIDTRNGPQLADLVKLLGERCKTLKEMAQSCRYFYEDFAEFDADAAKKHLRPVARQPLEVVRDKLAAITDWTAENVHHAIQATADELEVGMGKVGMPLRVAVTGAGQSPALDVTVHAIGKTRSIERINKALDFIAERENQQ
B11: gltX L306P (protein)
chain: MKIKTRFAPSPTGYLHVGGARTALYSWLFARNHGGEFVLRIEDTDLERSTPEAIEAIMDGMNWLSLEWDEGPYYQTKRFDRYNAVIDQMLEEGTAYKCYCSKERLEALREEQMAKGEKPRYDGRCRHSHEHHADDEPCVVRFANPQEGSVVFDDQIRGPIEFSNQELDDLIIRRTDGSPTYNFCVVVDDWDMEITHVIRGEDHINNTPRQINILKALKAPVPVYAHVSMINGDDGKKLSKRHGAVSVMQYRDDGYLPEALLNYLVRLGWSHGDQEIFTREEMIKYFTLNAVSKSASAFNTDKLLWPNHHYINALPPEYVATHLQWHIEQENIDTRNGPQLADLVKLLGERCKTLKEMAQSCRYFYEDFAEFDADAAKKHLRPVARQPLEVVRDKLAAITDWTAENVHHAIQATADELEVGMGKVGMPLRVAVTGAGQSPALDVTVHAIGKTRSIERINKALDFIAERENQQ
B12: gltX V186P (protein)
chain: MKIKTRFAPSPTGYLHVGGARTALYSWLFARNHGGEFVLRIEDTDLERSTPEAIEAIMDGMNWLSLEWDEGPYYQTKRFDRYNAVIDQMLEEGTAYKCYCSKERLEALREEQMAKGEKPRYDGRCRHSHEHHADDEPCVVRFANPQEGSVVFDDQIRGPIEFSNQELDDLIIRRTDGSPTYNFCVPVDDWDMEITHVIRGEDHINNTPRQINILKALKAPVPVYAHVSMINGDDGKKLSKRHGAVSVMQYRDDGYLPEALLNYLVRLGWSHGDQEIFTREEMIKYFTLNAVSKSASAFNTDKLLWLNHHYINALPPEYVATHLQWHIEQENIDTRNGPQLADLVKLLGERCKTLKEMAQSCRYFYEDFAEFDADAAKKHLRPVARQPLEVVRDKLAAITDWTAENVHHAIQATADELEVGMGKVGMPLRVAVTGAGQSPALDVTVHAIGKTRSIERINKALDFIAERENQQ

Target: Escherichia coli (laboratory strain)
Assay: barcode share on antibiotic plates over drug-free plates; higher = less susceptible
Details: antibiotic: gentamicin; 2× MIC (MIC 0.45 µg/mL)
Experimental: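 A pool of E. coli strains, each edited to carry one amino-acid change in an essential protein, was grown for 48 h on minimal glucose agar with or without antibiotic; strain barcodes were sequenced; mean of two replicates.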

Protein	fold change of barcode share
B1	0.0215 ± 0.01
B2	< 0.0219
B3	< 0.0172
B4	< 0.0151
B5	< 0.0164
B6	0.00937 ± 0.011
B7	0.0716 ± 0.097
B8	0.00432 ± 0.0012
B9	< 0.00595
B10	< 0.0036
B11	< 0.0196
B12	0.008 ± 0.0042
